Measurements from paper PMC9911399, “Two distinct binding modes provide the RNA-binding protein RbFox with extraordinary sequence specificity”.
Numbering of substitutions follows the chain as printed; changes in the protein carry UniProt numbers. The list shows a part of the results.

B1: AUACCUA (DNA:RNA)
RNA: GGGAGACCGGAAUUCAGAUUGUCCAUACCUAUUAAAUCCCGUCGUAGCCACCA
DNA 1: CAATCTGAATTCCGGTCTCCC
DNA 2: TGGTGGCTACGACGGGATT
B2: AACGAGU (DNA:RNA)
RNA: B1 RNA with U26A, A27C, C28G, C29A, U30G, A31U
DNA 1: CAATCTGAATTCCGGTCTCCC
DNA 2: TGGTGGCTACGACGGGATT
B3: GGACGCU (DNA:RNA)
RNA: B1 RNA with A25G, U26G, C29G, U30C, A31U
DNA 1: CAATCTGAATTCCGGTCTCCC
DNA 2: TGGTGGCTACGACGGGATT
B4: ACGUAGU (DNA:RNA)
RNA: B1 RNA with U26C, A27G, C28U, C29A, U30G, A31U
DNA 1: CAATCTGAATTCCGGTCTCCC
DNA 2: TGGTGGCTACGACGGGATT
B5: AAAUGGU (DNA:RNA)
RNA: B1 RNA with U26A, C28U, C29G, U30G, A31U
DNA 1: CAATCTGAATTCCGGTCTCCC
DNA 2: TGGTGGCTACGACGGGATT
B6: GAAUUUU (DNA:RNA)
RNA: B1 RNA with A25G, U26A, C28U, C29U, A31U
DNA 1: CAATCTGAATTCCGGTCTCCC
DNA 2: TGGTGGCTACGACGGGATT
B7: UGGCGUG (DNA:RNA)
RNA: B1 RNA with A25U, U26G, A27G, C29G, A31G
DNA 1: CAATCTGAATTCCGGTCTCCC
DNA 2: TGGTGGCTACGACGGGATT
B8: UCUUCGG (DNA:RNA)
RNA: B1 RNA with A25U, U26C, A27U, C28U, U30G, A31G
DNA 1: CAATCTGAATTCCGGTCTCCC
DNA 2: TGGTGGCTACGACGGGATT
B9: CUCUAGC (DNA:RNA)
RNA: B1 RNA with A25C, A27C, C28U, C29A, U30G, A31C
DNA 1: CAATCTGAATTCCGGTCTCCC
DNA 2: TGGTGGCTACGACGGGATT
B10: CGCCAUC (DNA:RNA)
RNA: B1 RNA with A25C, U26G, A27C, C29A, A31C
DNA 1: CAATCTGAATTCCGGTCTCCC
DNA 2: TGGTGGCTACGACGGGATT
B11: AGUCGAA (DNA:RNA)
RNA: B1 RNA with U26G, A27U, C29G, U30A
DNA 1: CAATCTGAATTCCGGTCTCCC
DNA 2: TGGTGGCTACGACGGGATT
B12: AAGGUCU (DNA:RNA)
RNA: B1 RNA with U26A, A27G, C28G, C29U, U30C, A31U
DNA 1: CAATCTGAATTCCGGTCTCCC
DNA 2: TGGTGGCTACGACGGGATT
B13: UUUAUCU (DNA:RNA)
RNA: B1 RNA with A25U, A27U, C28A, C29U, U30C, A31U
DNA 1: CAATCTGAATTCCGGTCTCCC
DNA 2: TGGTGGCTACGACGGGATT
B14: UGAGACA (DNA:RNA)
RNA: B1 RNA with A25U, U26G, C28G, C29A, U30C
DNA 1: CAATCTGAATTCCGGTCTCCC
DNA 2: TGGTGGCTACGACGGGATT
B15: AUUCUGA (DNA:RNA)
RNA: B1 RNA with A27U, C29U, U30G
DNA 1: CAATCTGAATTCCGGTCTCCC
DNA 2: TGGTGGCTACGACGGGATT
B16: UAGGACC (DNA:RNA)
RNA: GGGAGACCGGAAUUCAGAUUGUCCUAGGACCUUAAAUCCCGUCGUAGCCACCA
DNA 1: CAATCTGAATTCCGGTCTCCC
DNA 2: TGGTGGCTACGACGGGATT
B17: CCUUGAG (DNA:RNA)
RNA: GGGAGACCGGAAUUCAGAUUGUCCCCUUGAGUUAAAUCCCGUCGUAGCCACCA
DNA 1: CAATCTGAATTCCGGTCTCCC
DNA 2: TGGTGGCTACGACGGGATT
B18: GGGGCAG (DNA:RNA)
RNA: B17 RNA with C25G, C26G, U27G, U28G, G29C
DNA 1: CAATCTGAATTCCGGTCTCCC
DNA 2: TGGTGGCTACGACGGGATT
B19: ACUCAGC (DNA:RNA)
RNA: B1 RNA with U26C, A27U, C29A, U30G, A31C
DNA 1: CAATCTGAATTCCGGTCTCCC
DNA 2: TGGTGGCTACGACGGGATT
B20: UAGCCGA (DNA:RNA)
RNA: B1 RNA with A25U, U26A, A27G, U30G
DNA 1: CAATCTGAATTCCGGTCTCCC
DNA 2: TGGTGGCTACGACGGGATT

Each binder was assayed against T1, RBFOX1 RRM RbFoxmut (Fox-RRM*) (Homo sapiens, UniProt Q9NWB1 109-208, R118D;E147R;N151S;E152T) (assay: EMSA; HiTS-Eq, 1 nM pool, 10 min; buffer printed only for the single-RNA assays: 10 mM Tris pH 7.5, 150 mM NaCl, 3.4 mM EDTA, 0.001% NP-40, 30 C). Conditions: tags: His6 N-terminal (pET28a); label: 5' 32P.
T1 sequence: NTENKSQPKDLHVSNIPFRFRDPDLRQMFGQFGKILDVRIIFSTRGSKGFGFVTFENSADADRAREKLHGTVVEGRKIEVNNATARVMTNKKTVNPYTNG
In short: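 Relative association constants, normalised to the cognate motif, were derived by comparing read counts of each RNA species with those of the control reaction. The RNA sequenced was the free fraction, separated by 8% native PAGE after a 10 min equilibration in 50 µL of 1 nM 5′-radiolabelled RNA (7 randomized nucleotides) with increasing concentrations of purified wild-type or mutant RbFox RRM.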
With B1 the binding signal was 0.12 KA relative to UGCAUGU.
With B2 the binding signal was 0.0943 KA relative to UGCAUGU.
For B3, the binding signal was 0.087 KA relative to UGCAUGU.
B4 was tested, and the binding signal was 0.15 KA relative to UGCAUGU.
B5 was tested, and the binding signal was 0.103 KA relative to UGCAUGU.
With B6 the binding signal was 0.1 KA relative to UGCAUGU.
In the case of B7, the binding signal is reported as 0.321 KA relative to UGCAUGU.
For B8, the binding signal was 0.0899 KA relative to UGCAUGU.
With B9 the binding signal was 0.0925 KA relative to UGCAUGU.
For B10, the binding signal was 0.0812 KA relative to UGCAUGU.
B11 was tested, and the binding signal was 0.0915 KA relative to UGCAUGU.
With B12 the binding signal was 0.0715 KA relative to UGCAUGU.
B13 was tested, and the binding signal was 0.0759 KA relative to UGCAUGU.
With B14 the binding signal was 0.0773 KA relative to UGCAUGU.
B15 was tested, and the binding signal was 0.0695 KA relative to UGCAUGU.
With B16 the binding signal was 0.0753 KA relative to UGCAUGU.
In the case of B17, the binding signal is reported as 0.121 KA relative to UGCAUGU.
For B18, the binding signal was 0.116 KA relative to UGCAUGU.
For B19, the binding signal was 0.0993 KA relative to UGCAUGU.
With B20 the binding signal was 0.0645 KA relative to UGCAUGU.
